In US20250101001A1 (priority 2021, published 2025):

System: rat cortical neurons
Parameters: key: A: Statistically significant mean increase as a parent of DMSO control at 10 μM or less; B: No statistically significant mean increase as a percent of DMSO control at 10 μM or less
Conditions: compound added at 3 DIV, fixed at 9 DIV, vs DMSO control at 10 μM or less
From the text: Neurite Outgrowth Assay in Primary Neuronal Cultures (Cellectricon). Changes in the pattern of neurite outgrowth have been implicated in psychiatric and neurodegenerative disorders as well as traumatic injuries. The discovery of new compounds that can positively affect neuritogenesis are important for developing new therapeutics for neurological diseases. Measurement of neurite outgrowth of rat cortical neurons using an automated image-based assay was used to determine the neuroplastic effects of the compounds of the present invention. The neurite outgrowth assay was performed at Cellectricon AB (Sweden) as described below. All experimental work was conducted in accordance with European and Swedish animal welfare regulations. Pregnant Wistar Han rats (Janvier Labs, France) were housed and the cortices microsurgically dissected at University of Gothenburg, dept. Experimental Biomedicine by trained Cellectricon staff at gestation day 17 ½. The cortical cell culture preparations were performed in the cell laboratory at Cellectricon under sterile conditions.
Cortices were collected in microtubes with Hibernate E on ice. The tissue was triturated with a sterile glass Pasteur pipette to dissociate the tissue and the supernatant from each tube was transferred and pooled into one tube. To each remaining pellet, fresh Hibernate E was added. The trituration procedure above was repeated to fully dissociate the tissue. After the final trituration, the cell suspension was centrifuged. The supernatant was removed, and the pellet re-suspended by addition of Neurobasal complete medium. The cell suspensions were triturated between each addition to dissociate cell aggregates. The cells were counted using an automated cell counter (Countess II 2.0, Invitrogen).
Cells were added to wells in Cellaxess Elektra Poly-D-Lysine coated 384-well plates (Cellectricon AB) at a density of 2500 cells/well. Cells were cultured at 37° C., 5% CO2, 95% humidity. Test compounds were added after 3 days in vitro (DIV) to the cell cultures in concentration response format. The reference compound DL-2,5-Dimethoxy-4-iodoamphetamine hydrochloride (DOI, #10998.11, Chiron/Lab Sweden) was added in a fixed concentration (10 μM) to each plate. At 9 DIV, cell cultures were fixated using 4% PFA. After fixation, plates were blocked with a PBS-based solution consisting of 2% normal goat serum, 0.2% Triton X-100 and stained with primary antibody (anti-p-tubulin III; 1:1000) for detecting the axonal network, incubated overnight and thereafter with secondary antibody. In addition, cultures were stained with Hoechst (1:10 000) for nuclear staining.
High content data was acquired using a Perkin Elmer Operetta high content imager. Data analysis was carried out using the Perkin Elmer Harmony analysis software. To evaluate total number of cells, nuclei were identified using a predefined nuclear detection step. For quantification of total neurite length, the anti-j-III-tubulin positive neurites were detected with a predefined detection step, with parameters adjusted to aid optimal detection of the neurite network staining. For quantification of parameters on a single cell level, neurites were allocated to individual cell bodies. The cell body of an individual neuron was determined as the cytoplasm around the previously selected nucleus in a median smoothed image of the anti-p-III-tubulin staining. Compound effect on neurite outgrowth was evaluated based on two parameters: “number of type one nodes” (single cell level) and “total segment length” (population level). Total segment length data was fitted to Hill's equation and EC50 values were determined for active compounds.

Cc1cn(C2CNC2)c2ccc(F)cc12 [Compound 1, 1-(azetidin-3-yl)-5-fluoro-3-methyl-1H-indole]
Increase in Neurite Branchpoints: B
Increase in Neurite Length: B

Fc1ccc2c(ccn2C2CCNC2)c1F (centres unmarked) [Compound 15, 4,5-Difluoro-1-(pyrrolidin-3-yl)-1H-indole]
Increase in Neurite Branchpoints: A
Increase in Neurite Length: A

Fc1ccc2c(ccn2C2CNC2)c1 [Compound 27, 1-(azetidin-3-yl)-5-fluoro-1H-indole]
Increase in Neurite Branchpoints: A
Increase in Neurite Length: A

Fc1ccc2c(ccn2C2CNC2)c1F [Compound 2, 1-(azetidin-3-yl)-4,5-difluoro-1H-indole]
Increase in Neurite Branchpoints: A
Increase in Neurite Length: A
